The record followed here is ChEMBL document CHEMBL4888484, “Replenishing the malaria drug discovery pipeline: Screening and hit evaluation of the MMV Hit Generation Library 1 (HGL1) against asexual blood stage Plasmodium falciparum ,using a nano luciferase reporter read-out” (2022).

In general, % Inhibition refers to the relative decrease from the control value, in per cent.

About 540 (0.36%) of roughly 150,000 compounds showed an effect of 50% or more. The list shows a part of the results.

This assay relates to Plasmodium falciparum. Briefly: Primary screen in NF54 nanoGlo assay, in single point, at 2uM, 72h; a lower Z score goes with more inhibition. It is filed as functional, Erythrocyte. Conditions: timepoint 72 hour.
In the case of `CCN1C(=O)[C@@]2(c3ccccc31)[C@@H]1C(=O)N(c3ccc(Cl)c(C(F)(F)F)c3)C(=O)[C@@H]1[C@@H]1CCCN12`, the “% Inhibition” value is given as -8% and the Z score was found to be 0.98.
Turning to `CCCCS(=O)(=O)Nc1cnc2c(c1)COCC2`, the “% Inhibition” value was found to be 4% and the Z score is recorded as -0.85.
Taken in the same sequence, the figures for `CCCNc1ncc(CN2C[C@@H]3CC[C@H]2CN(Cc2c(C)noc2C)C3)cn1` were 23% and -2.97.
The matching figures for `CC(C)(C)OC(=O)N1CCC(n2c(=O)[nH]c3ccsc3c2=O)CC1`: -10% and 1.12.
Consider `O=C(c1ccc2nccnc2c1)N1CCC(n2cc(-c3ccccc3)nn2)CC1`, for which the “% Inhibition” value is -22% and the Z score came to 2.76.
For `O=C(c1csc(S(=O)(=O)N2CCN(c3ccccc3)CC2)c1)N1CCCC1`, the “% Inhibition” value turned out to be 0% and the Z score is -0.02.
Taken in the same sequence, the figures for `Fc1cccc(-c2nc(-c3cn(-c4cccc(F)c4)nn3)no2)c1` were -22% and 4.26.
For the molecule `Cc1cc(C)nc(NC(=O)[C@]2(C(C)C)CNC(=O)C2)c1`, the “% Inhibition” value was -15% and the Z score worked out at 1.45.
With `CC(C)c1csc(C(=O)N2CCC3(CC2)C(=O)NCCCN3C)n1`, the “% Inhibition” value is on record as 2% and the Z score is on record as -0.22.
The matching figures for `Cc1cc(C(=O)NCC#N)c(Cl)cc1F`: -4% and 0.81.
The matching figures for `Cc1nc(C(=O)NC2CN(C3CC3)CC2C)n(C)n1` (configuration not stated): -5% and 0.59.
As to `O=C(Nc1cc(CCc2ccccc2)n[nH]1)[C@@H]1COCCO1`, the “% Inhibition” value is 0% and the Z score is listed as -0.04.
The matching figures for `O=C(c1cccnc1)c1ccc(F)c(F)c1`: -4% and 0.69.
`CN(C)c1ccccc1C(=O)N1CCc2[nH]c(-c3cn[nH]c3)nc2C1`: the “% Inhibition” value is given as -4% and the Z score stood at 0.73.
The matching figures for `Cc1cnc(C2CN([C@@H](C)C3CC3)C2)n1Cc1ccccc1`: -20% and 2.56.
Regarding `COc1cc(C(=O)NCc2ccccn2)nc2c(C)cc(F)cc12`, the “% Inhibition” value is -7% and the Z score came to 0.98.
Taken in the same sequence, the figures for `CC1CC(C)n2nccc2N1C(=O)c1cc(C2CC2)nc2ccccc12` (configuration not stated) were -1% and 0.16.
Take `COc1ccc(OC)c(CNc2ncnc3c2nc2n3CCCCC2)c1`: the “% Inhibition” value was -16% and the Z score was 2.6.
For the molecule `Oc1nc2nonc2nc1Nc1ccccc1`, the “% Inhibition” value is listed as 16% and the Z score is -3.
For `Cc1ccc(S(=O)(=O)CCc2noc(C(=O)NC(C)C)n2)cc1`, the “% Inhibition” value is given as -16% and the Z score was determined as 2.19.
Taken in the same sequence, the figures for `CC1(C)C(=O)N(Cc2ccccc2)CCN1C(=O)[C@@H]1COCCO1` were -8% and 1.51.
Taken in the same sequence, the figures for `C[C@@H](CCc1ccccc1F)NCc1cccnc1` were 0% and -0.03.
The matching figures for `COc1ccc(CN2CCC[C@H](S(C)(=O)=O)C2)cn1`: -9% and 1.68.
With `Cc1noc(C)c1S(=O)(=O)NC1CCCC(O)C1` (configuration not stated), the “% Inhibition” value was -5% and the Z score amounted to 0.96.
For `CCN1C(=O)c2cc(NS(=O)(=O)c3ccc(NC(C)=O)cc3C)ccc2Oc2ccccc21`, the “% Inhibition” value was -19% and the Z score is given as 2.12.
Taken in the same sequence, the figures for `CC(C)CCOc1ccc(S(=O)(=O)N(CC#N)CC(F)(F)F)cc1` were -9% and 1.07.
Taken in the same sequence, the figures for `Cc1cccnc1C[C@H](C)NC(=O)c1cnc(N2CCN(C)CC2)nc1C` were -2% and 0.52.
Taken in the same sequence, the figures for `COc1ccc(C(=O)CCC(=O)NCC#N)c(Cl)c1` were -11% and 1.29.
For `CC(C)Cc1nc(CNC(=O)[C@H](C)OC(C)C)no1`, the “% Inhibition” value is on record as -11% and the Z score came to 1.39.
Taken in the same sequence, the figures for `CCS(=O)(=O)c1ccc2oc(-c3ccccc3OS(=O)(=O)c3ccccc3OC)nc2c1` were -11% and 1.76.
`Cc1ccc(C(=O)NCC(F)(F)F)s1`: the “% Inhibition” value is 0% and the Z score is reported as -0.01.
In the case of `Cc1cc2sc(NC(=O)N[C@@]3(C)CCOC3)nc2s1`, the “% Inhibition” value is reported as -10% and the Z score worked out at 1.03.
Taken in the same sequence, the figures for `CCNc1cnc(-c2noc([C@H]3CC(=O)N(c4nccs4)C3)n2)cn1` were -7% and 0.71.
The matching figures for `O=C(CC1CC2CCC1C2)N1CC2CC1CS2(=O)=O` (configuration not stated): -6% and 0.89.
The matching figures for `CCN(CC(=O)Nc1c(F)cccc1F)C(=O)c1ccccn1`: -6% and 0.81.
Turning to `CCc1nn(C)c2c(=O)n([C@@H](CC)COC)cnc12`, the “% Inhibition” value is -12% and the Z score is on record as 1.3.
Taken in the same sequence, the figures for `CCCCn1c(N)c(N2CCOCC2)c(=O)n(CC(=O)Nc2cc(OC)cc(OC)c2)c1=O` were -10% and 1.17.
The matching figures for `CN1CCN(Cc2ccc(NCc3ccc(-c4cccnc4)o3)cc2Br)CC1`: 2% and -0.28.
The matching figures for `Cc1cc(C(=O)O[C@H]2CCc3cccnc32)on1`: -6% and 0.61.
Take `CC1(C)NC(=O)N(CC(=O)N2CCC[C@H](n3cccn3)C2)C1=O`: the “% Inhibition” value is -7% and the Z score worked out at 0.97.
On to `CC(C)c1noc(COc2ccc(C(=O)NC3CC3)cc2)n1`, for which the “% Inhibition” value is listed as -6% and the Z score is on record as 0.58.
The matching figures for `CC(=O)N[C@@H](CCC(N)=O)c1ncnn1Cc1ccccc1`: 2% and -0.43.
Taken in the same sequence, the figures for `CCC(OC1CCCC(C)C1)C(=O)Nc1nnc[nH]1` (configuration not stated) were -2% and 0.3.
Take `COc1c(F)c(F)cc(C(=O)N2CC[C@@H](c3cccs3)S(=O)(=O)CC2)c1F`: the “% Inhibition” value is given as -6% and the Z score worked out at 0.97.
The matching figures for `COc1ccc(C)cc1S(=O)(=O)N1CC[C@H](Oc2ccncn2)C1`: -4% and 0.6.
The matching figures for `CCCc1nnc(N2CC[C@@](O)(CC)[C@@H](O)C2)s1`: 3% and -0.53.
As to `Cc1ccc(C(=O)Nc2cnn(C(C)C)c2)cc1-c1cnn(C)c1`, the “% Inhibition” value is reported as -13% and the Z score was 1.76.
The matching figures for `CCOC(=O)Nc1nc2c(s1)CN(C(=O)c1cc(-c3ccccc3)on1)CC2`: -16% and 3.25.
The matching figures for `Cc1ccc(OCCNC(C)(C)C)cc1`: -8% and 1.1.
For the molecule `CCn1c(=O)c2ccnn2c2ccc(C(=O)NCCN3CCCCC3)cc21`, the “% Inhibition” value was determined as 11% and the Z score was -1.97.
The matching figures for `CC(Nc1nc2ccccc2o1)C1CCCO1` (configuration not stated): -3% and 0.51.
In the case of `Cc1ncsc1CN(C)C[C@H]1CCN(c2ccc3nnc(C(C)(C)C)n3n2)C1`, the “% Inhibition” value was -46% and the Z score is on record as 5.42.
Taken in the same sequence, the figures for `CC1CCC(Nc2ccn(CCC(N)=O)n2)C(C)C1` (configuration not stated) were -7% and 0.63.
For `Cc1ccc(C(C)NC(C)CCS(C)(=O)=O)cc1C` (configuration not stated), the “% Inhibition” value was found to be 2% and the Z score is -0.2.
Taken in the same sequence, the figures for `OCc1cc2cc(CCOCc3ccccc3)ccc2[nH]1` were -13% and 2.57.
In the case of `Cc1cc(C)nc(Nc2ccc(C(=O)Nc3ccc(C(N)=O)cc3)cc2)n1`, the “% Inhibition” value stood at 0% and the Z score came out at 0.04.
On to `Cc1cc(C)cc(CN2CCN(c3ccnc(C)c3)CC2=O)c1`, for which the “% Inhibition” value is listed as -12% and the Z score is 2.1.
The matching figures for `Cc1cc(CNC(=O)N(C)CCO)ccc1Cl`: -4% and 0.35.
Regarding `OCCn1nc(-c2ccco2)nc1CCc1ccc2c(c1)OCO2`, the “% Inhibition” value is -18% and the Z score was found to be 2.66.
The matching figures for `Cc1c(NC(=O)N2CCC[C@@]3(CCN(C)C3)C2)cccc1C(=O)N(C)C`: 5% and -0.77.
The matching figures for `CC(C)(C)OC(=O)N1CC([C@H](F)C(=O)N2CC(Cc3cccc(OC(F)(F)F)c3)C2)C1`: 0% and -0.07.
The matching figures for `CC(C)c1nc(NCc2ccc(C(=O)O)cc2)nc(N(C)C)n1`: -3% and 0.52.
As for `O=C1C[C@@H](C(=O)c2ccc3c(c2)OCO3)c2c(-c3ccc(Cl)cc3)n[nH]c2N1`, the “% Inhibition” value was -18% and the Z score was determined as 2.31.
Taken in the same sequence, the figures for `COCC1CN(CC(O)C(F)(F)F)CC(C)O1` (configuration not stated) were -6% and 0.83.
Taken in the same sequence, the figures for `O=C(COc1ccc(Cl)cc1)N1CC[C@H](N2C(=O)CNC2=O)C1` were -7% and 1.24.
The matching figures for `Cn1cccc1-c1nnc2n1CCCC2`: 6% and -1.18.
`O=C(Nc1nccs1)[C@H]1CCCN(Cc2cnc3ccccn23)C1`: the “% Inhibition” value is on record as -24% and the Z score is recorded as 2.04.
On to `Cc1c(C(=O)N(C)CCc2ccccn2)oc2c(Cl)cccc12`, for which the “% Inhibition” value is given as -11% and the Z score was determined as 2.02.
The matching figures for `Cc1cnc(N2CCN(C(=O)C(C)(C)N3CCN(C(=O)OC(C)(C)C)CC3)CC2)s1`: -1% and 0.11.
Taken in the same sequence, the figures for `CC(=O)N1CCC(C(=O)N2c3ccccc3C[C@@H]2C)CC1` were -9% and 1.71.
Take `Cc1nn(-c2ccc(F)cc2)c2c1c(=O)c(C(=O)NCc1cccs1)cn2C`: the “% Inhibition” value is -1% and the Z score was found to be 0.1.
Taken in the same sequence, the figures for `Cc1n[nH]c(CN2CCN(Cc3ccccc3)[C@H]3CS(=O)(=O)C[C@H]32)n1` were -3% and 0.34.
Taken in the same sequence, the figures for `CCOC[C@@H](O)CN(Cc1c(-c2ccccc2)nn(C)c1Oc1ccc(C)cc1)C1CC1` were -12% and 1.17.
Consider `O=C(NC1CCOC2(CCS(=O)(=O)C2)C1)NC1CCCC12CCCCC2` (configuration not stated), for which the “% Inhibition” value is listed as -3% and the Z score was 0.42.
Taken in the same sequence, the figures for `CC(C)C1CCCCC1NC(=O)C(=O)Nc1ncn(CC(=O)N(C)C)n1` (configuration not stated) were 20% and -2.3.
As for `O=C1NC2(CCN(C(=O)NCCc3ccccc3)CC2)Nc2c(Cl)cccc21`, the “% Inhibition” value is given as -4% and the Z score is on record as 0.47.
Turning to `Cc1cc(F)ccc1-c1ccc(C(=O)N[C@@]2(CO)CCOC2)cc1F`, the “% Inhibition” value is on record as -2% and the Z score was 0.33.
Turning to `O=C(Nc1c(Cl)cccc1Cl)c1ncc(-c2ccccc2)o1`, the “% Inhibition” value is 15% and the Z score is listed as -2.07.
Taken in the same sequence, the figures for `Cc1cc(=O)c2c(C3CCCC3)nn(-c3ccccc3)c2[nH]1` were -14% and 1.66.
The matching figures for `O=C(N[C@H]1CCOC12CCCC2)c1cc(CO)on1`: 11% and -1.39.
The matching figures for `COC[C@@H]1[C@H](C(=O)N2CCN(c3ccc(F)cc3)CC2)CCC(=O)N1C`: -17% and 2.05.
For the molecule `Cc1noc(C)c1NC(=O)COCC1CC1`, the “% Inhibition” value is recorded as -8% and the Z score came out at 0.98.
Taken in the same sequence, the figures for `COc1cccc(C(=O)N2CCC3(CC2)C[C@@H](N2CCOCC2)CCO3)c1` were -5% and 0.67.
Take `CC(=O)Nc1ccc(C)cc1NCC(=O)NCC(F)(F)F`: the “% Inhibition” value is reported as -11% and the Z score is 1.77.
For the molecule `O=C(Nc1cccnc1)N(CCC(F)(F)F)C1CCC1`, the “% Inhibition” value is listed as -2% and the Z score is on record as 0.25.
In the case of `O=C(Cn1cnnn1)Nc1cc(-c2ccccc2)ccc1Cl`, the “% Inhibition” value was -4% and the Z score came out at 0.41.
